# Source: the supplement of paper PMC4604168 (melanoma cell lines)
# The list shows a part of the results. Most values come without repeats; read them as rough.
# Columns and labels:
# Assay in all cases: cell count relative to DMSO control; melanoma cells; higher = more viable cells
# Details in all cases: library dose: low library concentration; 72 h
# MZ2-MEL = test system: MZ2-MEL
# MeWo = test system: MeWo
# RPMI7951 = test system: RPMI7951
# RVH-421 = test system: RVH-421
# SkMel28 = test system: SkMel28
# SkMel2 = test system: SkMel2
# SkMel30 = test system: SkMel30
# SkMel5 = test system: SkMel5
# UACC257 = test system: UACC257
# UACC62 = test system: UACC62
# 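Also: cell number obtained by counting DAPI-stained nuclei in high-throughput microscope images with image analysis software, screen run in 1,536-well plates.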
SMILES,cell count (MZ2-MEL),cell count (MeWo),cell count (RPMI7951),cell count (RVH-421),cell count (SkMel28),cell count (SkMel2),cell count (SkMel30),cell count (SkMel5),cell count (UACC257),cell count (UACC62)
"Cc1ccc(Nc2nccc(N(C)c3ccc4c(C)n(C)nc4c3)n2)cc1S(N)(=O)=O [Pazopanib] + NCC(=O)Nc1ccc(-n2nc(C(F)(F)F)cc2-c2ccc3c(ccc4ccccc43)c2)cc1 [OSU03012] (first compound 0.4 µM, partner dose 1 µM)",83.1%,59%,125%,107%,96.5%,67.6%,47.5%,88%,107%,72.5%
"O=C(/C=C/c1cccnc1)NCCCCC1CCN(C(=O)c2ccccc2)CC1 + NC(=O)Nc1cc(-c2cccc(F)c2)sc1C(=O)N[C@H]1CCCNC1 [AZD7762] (first compound 0.01 µM, partner dose 0.02 µM)",40.4%,123%,83.8%,50.3%,91.7%,40.2%,102%,97.4%,136%,128%
"CC1(C)CCC(c2ccc(Cl)cc2)=C(CN2CCN(c3ccc(C(=O)NS(=O)(=O)c4ccc(N[C@H](CCN5CCOCC5)CSc5ccccc5)c(S(=O)(=O)C(F)(F)F)c4)cc3)CC2)C1 + Cc1ccc(NC(=O)c2cccc(N(C)C)c2)cc1NC(=O)c1ccc(O)cc1 [ZM336372] (first compound 0.4 µM, partner dose 2 µM)",73.4%,81.1%,52.3%,77%,78.2%,92.1%,65.4%,69%,86.7%,91.6%
"Cc1ccc(Nc2nccc(N(C)c3ccc4c(C)n(C)nc4c3)n2)cc1S(N)(=O)=O [Pazopanib] + CCc1ccc(CCOc2ccc(CC3SC(=O)NC3=O)cc2)nc1 [pioglitazone] (first compound 0.4 µM, partner dose 2 µM)",68.2%,116%,94.4%,89.7%,90.8%,104%,78.7%,78.7%,89.8%,83.3%
"CC1(C)CCC(c2ccc(Cl)cc2)=C(CN2CCN(c3ccc(C(=O)NS(=O)(=O)c4ccc(N[C@H](CCN5CCOCC5)CSc5ccccc5)c(S(=O)(=O)C(F)(F)F)c4)cc3)CC2)C1 + Oc1nc(-c2ccc(C(F)(F)F)cc2)nc2c1CSCC2 [XAV939] (first compound 0.4 µM, partner dose 2 µM)",90.5%,76.9%,49.5%,89.8%,111%,82.7%,92.4%,65.6%,67.2%,94.4%
"O=C(/C=C/c1cccnc1)NCCCCC1CCN(C(=O)c2ccccc2)CC1 + COc1cc(Nc2ncc(F)c(Nc3ccc4c(n3)NC(=O)C(C)(C)O4)n2)cc(OC)c1OC [Tamatinib] (first compound 0.01 µM, partner dose 0.4 µM)",50.2%,94.3%,95.4%,60.4%,81.5%,57.3%,69.3%,73.2%,54.2%,78.7%
"CC1(C)CCC(c2ccc(Cl)cc2)=C(CN2CCN(c3ccc(C(=O)NS(=O)(=O)c4ccc(N[C@H](CCN5CCOCC5)CSc5ccccc5)c(S(=O)(=O)C(F)(F)F)c4)cc3)CC2)C1 + CO[C@@H]1[C@H](N(C)C(=O)c2ccccc2)C[C@H]2O[C@]1(C)n1c3ccccc3c3c4c(c5c6ccccc6n2c5c31)C(=O)NC4 [Midostaurin] (first compound 0.4 µM, partner dose 0.08 µM)",90.5%,68.2%,34.7%,60.6%,94.9%,75.6%,92.8%,55.1%,71.2%,99.3%
"O=C(/C=C/c1cccnc1)NCCCCC1CCN(C(=O)c2ccccc2)CC1 + CCCCCCCCCCCC1=C(O)C(=O)C=C(O)C1=O [Embelin] (first compound 0.01 µM, partner dose 1.2 µM)",80.2%,118%,85.3%,54.7%,96.6%,72.6%,100%,94.5%,131%,105%
"O=C(/C=C/c1cccnc1)NCCCCC1CCN(C(=O)c2ccccc2)CC1 + C=CCn1c(=O)c2cnc(Nc3ccc(N4CCN(C)CC4)cc3)nc2n1-c1cccc(C(C)(C)O)n1 [MK1775] (first compound 0.01 µM, partner dose 0.02 µM)",37.5%,92.5%,97.5%,62.6%,79.5%,43.9%,103%,82.3%,75.1%,86.3%
"CC1(C)CCC(c2ccc(Cl)cc2)=C(CN2CCN(c3ccc(C(=O)NS(=O)(=O)c4ccc(N[C@H](CCN5CCOCC5)CSc5ccccc5)c(S(=O)(=O)C(F)(F)F)c4)cc3)CC2)C1 + O=C(CCCCCCC(=O)Nc1ccccc1)NO [vorinostat] (first compound 0.4 µM, partner dose 0.08 µM)",106%,75.4%,77.2%,65.6%,79.7%,92%,77.6%,53.5%,67.7%,82.9%
"O=C(/C=C/c1cccnc1)NCCCCC1CCN(C(=O)c2ccccc2)CC1 + Oc1nc(-c2ccc(C(F)(F)F)cc2)nc2c1CSCC2 [XAV939] (first compound 0.01 µM, partner dose 2 µM)",81.8%,103%,88.8%,78.8%,87.9%,75.7%,96.9%,70.4%,94.2%,86.2%
"CC1(C)CCC(c2ccc(Cl)cc2)=C(CN2CCN(c3ccc(C(=O)NS(=O)(=O)c4ccc(N[C@H](CCN5CCOCC5)CSc5ccccc5)c(S(=O)(=O)C(F)(F)F)c4)cc3)CC2)C1 + Cc1cc([N+](=O)[O-])ccc1NS(=O)(=O)c1cc(Cl)ccc1Cl [FH535] (first compound 0.4 µM, partner dose 1 µM)",87.7%,58.2%,55.5%,56.5%,67.3%,92.9%,45.7%,54.3%,74.3%,93.5%
"O=C(/C=C/c1cccnc1)NCCCCC1CCN(C(=O)c2ccccc2)CC1 + O=C(O)c1ccc(-c2c[nH]c3ncc(-c4ccccc4)cc23)cc1C1CCCC1 [GSK650394] (first compound 0.01 µM, partner dose 0.16 µM)",38.6%,112%,105%,44%,76%,39.8%,97%,93.8%,63.3%,87.3%
"CC1(C)CCC(c2ccc(Cl)cc2)=C(CN2CCN(c3ccc(C(=O)NS(=O)(=O)c4ccc(N[C@H](CCN5CCOCC5)CSc5ccccc5)c(S(=O)(=O)C(F)(F)F)c4)cc3)CC2)C1 + c1cc(-c2cnn3cc(-c4ccc(OCCN5CCCCC5)cc4)cnc23)ccn1 [Dorsomorphin] (first compound 0.4 µM, partner dose 0.4 µM)",94.1%,56.5%,59.9%,89.7%,92.6%,92.8%,84.4%,55.5%,93.1%,103%
"O=C(/C=C/c1cccnc1)NCCCCC1CCN(C(=O)c2ccccc2)CC1 + CO[C@@H]1[C@H](N(C)C(=O)c2ccccc2)C[C@H]2O[C@]1(C)n1c3ccccc3c3c4c(c5c6ccccc6n2c5c31)C(=O)NC4 [Midostaurin] (first compound 0.01 µM, partner dose 0.08 µM)",29%,84%,87%,45.6%,79.8%,50.3%,91.8%,87.5%,78%,80.5%
"Cc1ccc(Nc2nccc(N(C)c3ccc4c(C)n(C)nc4c3)n2)cc1S(N)(=O)=O [Pazopanib] + O=C(Nc1cccc(Cl)c1)Nc1ncc(CCNc2ncnc3ccsc23)s1 [SNS314] (first compound 0.4 µM, partner dose 0.0008 µM)",75.7%,92.5%,93.4%,77.8%,101%,99.6%,86.7%,95.3%,100%,94.2%
"Cc1ccc(Nc2nccc(N(C)c3ccc4c(C)n(C)nc4c3)n2)cc1S(N)(=O)=O [Pazopanib] + OCCn1cc(-c2cnc3nnn(Cc4ccc5ncccc5c4)c3n2)cn1 [PF04217903] (first compound 0.4 µM, partner dose 1 µM)",84.1%,107%,114%,135%,111%,99.9%,93.1%,96.6%,130%,99.9%
"Cc1ccc(Nc2nccc(N(C)c3ccc4c(C)n(C)nc4c3)n2)cc1S(N)(=O)=O [Pazopanib] + COc1ccc2c(c1)CCC1C2CCC2(C)C(NCCCCCCN3C(=O)C=CC3=O)CCC12 [U73122] (first compound 0.4 µM, partner dose 0.4 µM)",73.4%,108%,76.5%,102%,93.6%,113%,85.1%,87%,90.7%,90.3%
"Cc1ccc(Nc2nccc(N(C)c3ccc4c(C)n(C)nc4c3)n2)cc1S(N)(=O)=O [Pazopanib] + CCCCCCCCCCCC1=C(O)C(=O)C=C(O)C1=O [Embelin] (first compound 0.4 µM, partner dose 1.2 µM)",70.6%,96.9%,89.8%,111%,96.7%,99.6%,75.6%,99.1%,87.7%,89.4%
"O=C(/C=C/c1cccnc1)NCCCCC1CCN(C(=O)c2ccccc2)CC1 + CC(C)(C)c1cnc(CSc2cnc(NC(=O)C3CCNCC3)s2)o1 [SNS-032] (first compound 0.01 µM, partner dose 0.01 µM)",32.6%,108%,92.5%,59.8%,81.4%,54.6%,79.9%,83.2%,97.2%,91%
"Cc1ccc(Nc2nccc(N(C)c3ccc4c(C)n(C)nc4c3)n2)cc1S(N)(=O)=O [Pazopanib] + CCN(CC)CCCCNc1ncc2cc(-c3cc(OC)cc(OC)c3)c(NC(=O)NC(C)(C)C)nc2n1 [PD173074] (first compound 0.4 µM, partner dose 0.1 µM)",79.6%,115%,88.8%,76.3%,88.3%,107%,72.9%,79.2%,77.1%,90.9%
